Measurements as given in the supplement of paper PMC8792480.
This is one part of the list. Repeats are few or missing, and single values can be far off.

Test system: A549
Test: cell-surface PD-L1 MFI ratio relative to radiation alone (isotype-subtracted); higher = higher PD-L1 surface expression
Conditions: inducer: radiation 8 Gy; 10 µM; 24 h
Procedure: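 A549 and H460 NSCLC cells were treated with each library drug at 10 uM, then with radiation (8 Gy) or cisplatin (4 uM), and incubated for 24 h. Cell-surface PD-L1 was measured by flow cytometry as an MFI ratio: (MFI drug+inducer - MFI isotype)/(MFI inducer alone - MFI isotype). Hits were defined as ratio < 0.75.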
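Also: surface PD-L1 on NSCLC cells stained with a PE-labelled anti-human PD-L1 antibody before flow cytometry, screening a library of roughly two hundred mostly kinase and epigenetic inhibitors.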

cell-surface PD-L1 MFI ratio, inactive:
CN(C)C(=N)NC(=N)N [Metformin] 1.12
CN(C)Cc1cccc(N=C(c2ccccc2)c2c(O)[nH]c3cc(C(=O)N(C)C)ccc23)c1 1.38
NC1(c2ccc(-c3nc4ccn5c(=O)[nH]nc5c4cc3-c3ccccc3)cc2)CCC1 1.03
CCN(CC)CCNC(=O)c1c(C)[nH]c(/C=C2\C(=O)Nc3ccc(-c4csc(-c5ccccc5)n4)cc32)c1C [Amcasertib (BBI503)] 6.4
O=C(N/N=C/c1ccc(O)c(O)c1)c1cc2ccccc2cc1O [Dynasore] 0.888
CCOc1cc(N2CCC(O)CC2)ccc1Nc1ncc2c(n1)N(C)c1ccccc1C(=O)N2C 0.887
Cc1ccc(-c2cc(C(F)(F)F)nn2-c2ccc(S(N)(=O)=O)cc2)cc1 [Celecoxib] 1.32
O=C(CCCCCCC(=O)Nc1ccccc1)NO [Vorinostat (SAHA, MK0683)] 1.38
Nc1ncn([C@@H]2O[C@H](CO)[C@@H](O)[C@H]2O)c(=O)n1 [Azacitidine] 0.87
c1ccc(-c2nn3c(c2-c2ccnc4cc(OCCN5CCOCC5)ccc24)CCC3)nc1 1.27
CCc1ccc(C(=O)Nc2cc(CN3CCN(C)CC3)cc(C(F)(F)F)c2)cc1C#Cc1cnc2ccnn2c1 0.927
Oc1c2ccccc2c2c3c(cccc13)N=N2 0.946
CCOC(=O)CCNc1cc(N2CCc3ccccc3CC2)nc(-c2ccccn2)n1 0.934
CO[C@H]1C[C@@H]2CC[C@@H](C)[C@@](O)(O2)C(=O)C(=O)N2CCCC[C@H]2C(=O)O[C@H]([C@H](C)C[C@@H]2CC[C@@H](O)[C@H](OC)C2)CC(=O)[C@H](C)/C=C(\C)[C@@H](O)[C@@H](OC)C(=O)[C@H](C)C[C@H](C)/C=C/C=C/C=C/1C [Rapamycin (Sirolimus)] 1.14
CCNC(=O)c1noc(-c2cc(C(C)C)c(O)cc2O)c1-c1ccc(CN2CCOCC2)cc1 [Luminespib (AUY-922, NVP-AUY922)] 0.973
COc1cc2c(Oc3ccc4[nH]c(C)cc4c3F)ccnc2cc1OCC1(N)CC1 [Anlotinib] 1.25
COc1ccc(Oc2cc(NCCC(F)(F)F)c3ncc(-c4ccc(C(=O)NC5CC5)c(C)c4)n3n2)c(F)c1F 0.852
O=C(/C=C/c1ccc2ccc(C(F)(F)F)cc2n1)c1ccncc1 0.828
CCC(=O)Nc1cccc(Oc2nc(Nc3ccc(N4CCN(C)CC4)cc3OC)ncc2Cl)c1 0.946
O=C(O)c1ccc2c(c1)nc(Nc1cccc(Cl)c1)c1ccncc12 [Silmitasertib (CX-4945)] 0.791
O=C(O)C(Cc1ccccc1[N+](=O)[O-])=NNc1nc(-c2ccc(Cl)c(Cl)c2)cs1 (mixture of isomers) 1.49
Cc1cc(-c2ncc(CC(=O)Nc3ccc(-c4cnccn4)cn3)cc2C)ccn1 1.02
C[C@]1(O)C[C@@H](c2nc(-c3ccc4ccc(-c5ccccc5)nc4c3)c3c(N)nccn32)C1 [Linsitinib (OSI-906)] 1.26
CCN(c1cc(-c2ccc(CN3CCOCC3)cc2)cc(C(=O)NCc2c(C)cc(C)[nH]c2=O)c1C)C1CCOCC1 [Tazemetostat (EPZ-6438)] 0.818
CC(C)(C)NC(=O)c1cncn1C1CCN(c2ccc(-c3nnc(C(F)(F)F)o3)cn2)CC1 0.787
CN1CCN(c2nc(C3=C(c4c[nH]c5ccccc45)C(=O)NC3=O)c3ccccc3n2)CC1 [Sotrastaurin] 3.49
C=CC(=O)N1CCC[C@@H](n2nc(-c3ccc(Oc4ccccc4)cc3)c3c(N)ncnc32)C1 [Ibrutinib] 1.22
CN1C(=O)c2sccc2N(C)c2nc(Nc3ccc(S(N)(=O)=O)cc3)ncc21 1.52
COc1cc(N2CCN(C)CC2)ccc1Nc1nccc(-c2cn(C)c3cnccc23)n1 1.2
COc1cc2nccc(Oc3ccc(NC(=O)NC4CC4)c(Cl)c3)c2cc1C(N)=O [Lenvatinib] 1.46
CC(C)Oc1ccc(C(=O)N[C@H](CNC(=O)CN(C)C)Cc2ccc(-c3cn4cccc([C@H](C)O)c4n3)cc2)cc1Cl 1.2
Cc1cc(Nc2cc(N3CCN(C)CC3)nc(Sc3ccc(NC(=O)C4CC4)cc3)n2)n[nH]1 [Tozasertib (VX-680, MK-0457)] 1.17
COc1ccc(-c2nc(-c3cc(C(F)(F)F)cc(C(F)(F)F)c3)n(Cc3ccc(C(N)=O)cc3)c2-c2ccc(OC)cc2)cc1 [Apoptozole] 0.781
CNC(=O)c1cc(Oc2ccc(NC(=O)Nc3ccc(Cl)c(C(F)(F)F)c3)c(F)c2)ccn1 [Regorafenib] 1.11
CCc1cncnc1N1CCN(Cc2nc3ccc(C(F)(F)F)cc3[nH]2)CC1 1.08
CC(C)(C)C[C@@H]1N[C@@H](C(=O)N[C@H]2CC[C@H](O)CC2)[C@H](c2cccc(Cl)c2F)[C@]12C(=O)Nc1cc(Cl)ccc12 0.843

cell-surface PD-L1 MFI ratio, active:
Cc1c(F)cc(C(=O)NC2CC2)cc1-c1ccc(C(=O)NCC(C)(C)C)cn1 0.699
O=c1cc(N2CCOCC2)oc2c(-c3cccc4c3sc3ccccc34)cccc12 0.74
CCn1cc(-c2cccc(C(F)(F)F)c2)c2sc(C(=N)NC3CCS(=O)(=O)CC3)cc2c1=O 0.727
Nc1ccc(C(=O)Nc2cccc(-c3nc(N4CCOCC4)c4oc5ncccc5c4n3)c2)cn1 0.549
